Experimental data as given in publication PMC4242493.
Some of the results follow. The list includes weakly bound sequences.

Each sequence was assayed against MaxL homodimer (UniProt P61244) (assay: universal protein-binding microarray (PBM)). Details: PBS-based mixture, 10 nM His-tagged protein dimer, 2% milk, 200 ng/uL BSA, 50 ng/uL salmon testes DNA, 0.02% TX-100; detection with Alexa 488 anti-His …; high values mean tight binding; most listed sequences are background and not binding sites; double strand, one strand shown.
Chain of UniProt P61244 (P61244 whole entry): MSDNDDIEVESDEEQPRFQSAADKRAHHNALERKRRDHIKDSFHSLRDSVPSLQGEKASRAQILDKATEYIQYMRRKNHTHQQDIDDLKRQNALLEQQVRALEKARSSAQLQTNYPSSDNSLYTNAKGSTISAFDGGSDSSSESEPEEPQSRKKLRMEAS

Sequence | binding signal (normalized occupancy)
CACCTTGA | 0.0815
CCTTATAA | 0.084
CAGAACCG | 0.0713
CGGAGAAA | 0.0676
CCGCAAGG | 0.0711
CTACTGGA | 0.0727
GAGATTGC | 0.0746
ACACCCTC | 0.0791
ACTGACTA | 0.0704
CCACTTCA | 0.0741
AATAGACC | 0.0741
ACCGTCAC | 0.0756
TAAAAAGA | 0.0752
CATTCGAA | 0.073
ATTAACCC | 0.0777
AATAAAAG | 0.0762
AATTACTG | 0.0697
AGCACGAC | 0.0782
CTAGTACC | 0.0747
CAAGACGG | 0.0766
ACGGGGGG | 0.0891
ATCAACCC | 0.0811
AGCAATGC | 0.0823
CTTCAATC | 0.0732

Sequence | binding signal (normalized occupancy)
TGACTACA | 0.0774
AAGGCAAT | 0.074
AGAACTCT | 0.0685
GACGGCTA | 0.0708
CAGCGCGG | 0.0805
ACCCAGAA | 0.0721
CGCTAAGC | 0.0686
AACGTATA | 0.0869
ACGGAAGA | 0.0734
CTGAGTTC | 0.0694
AGGCGAAG | 0.0748
GTCAACTA | 0.0759
AACCTCCC | 0.0757
CTGTCATA | 0.0779
CCGTTGCA | 0.0742
CCAAAGCC | 0.0715
CCCTTATA | 0.0809
ACCCTGCG | 0.0765
AAACGGAC | 0.0726
AGGAGCAC | 0.0771
CTCTAGTA | 0.075
CAGAAATG | 0.0776
CTCAATGC | 0.0789
AGGAGGAT | 0.0804

Sequence | binding signal (normalized occupancy)
GGACAAAA | 0.073
AGATCCAC | 0.0809
CCACGGGG | 0.097
AAGCGACC | 0.0664
CCTTCAAC | 0.0726
AAACGATC | 0.0729
ACTACGGG | 0.0752
CGATATCG | 0.0794
GAGTCACC | 0.0715
CTGAGGCC | 0.0692
AACCATCA | 0.08
TGATTAAA | 0.078
AACCAGGC | 0.0765
AGCTATAG | 0.0738
ATCGCGAG | 0.0765
CTAACCTC | 0.0744
CCCGCTTC | 0.0706
AATGGTAA | 0.0744
AGCGTTAC | 0.0823
TACATAAA | 0.0813
AGCGCCTC | 0.0677
AGCGTCCC | 0.0758
AGATTAGG | 0.0735
CCGGGTCA | 0.073

Sequence | binding signal (normalized occupancy)
TTACTGAA | 0.0754
CATCTTAA | 0.0826
ACCTGCAG | 0.0725
CATTTGGC | 0.0759
ATAGTGTA | 0.0839
CTCTGTCC | 0.0748
GTCTACGA | 0.0736
TGCTCTAA | 0.0747
TCTTAAAA | 0.0731
CTAGTCCC | 0.0702
CACTGGCA | 0.0717
GTCCCAGA | 0.0701
AGAGCTAC | 0.0801
AGATGCAC | 0.0867
CCGATATC | 0.0777
GCTACCCC | 0.0838
AGTCTAGA | 0.0705
AGGCGCGG | 0.0756
CACTTGGG | 0.075
CCTATGGC | 0.0713
CAGAAAAA | 0.0719
GAGACAGA | 0.0759
